Results as given in PubChem BioAssay AID1240 (Sanford-Burnham Center for Chemical Genomics, 2008).
Among all 50,000 compounds or so, about 800 (1.6%) showed an effect of 50% or more. The list shows a part of the results.

target: Bcl-2-like protein 10 (Homo sapiens) (UniProt Q9HD36); test: TR3 peptide-Bcl-B binding displacers, biochemical primary FP assay, phenotype converters (AID 1240); settings: GST-Bcl-B / FITC-TR3 peptide fluorescence polarization; stronger effect = higher value; compound at 3.75 mg/L;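 note: 0% = Bcl-B with tracer peptide and DMSO and 100% = tracer peptide lacking Bcl-B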
UniProt Q9HD36, sequence (Q9HD36 whole entry, looked up): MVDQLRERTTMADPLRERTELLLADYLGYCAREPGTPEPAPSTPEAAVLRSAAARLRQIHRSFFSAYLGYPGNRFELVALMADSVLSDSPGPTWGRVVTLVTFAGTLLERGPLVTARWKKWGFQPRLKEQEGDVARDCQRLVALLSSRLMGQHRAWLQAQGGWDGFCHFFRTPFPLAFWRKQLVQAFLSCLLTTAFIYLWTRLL

SMILES	displacement
Cc1cc[n+](CC(=O)N(c2ccccc2)C(C)C)cc1	-9.9%
COc1ccc(OCCCOc2ccc(Cl)c(C)c2)cc1	15.4%
CCOc1ccc2c(c1)C(=C1SC(C(=O)OC)=C(C(=O)OC)S1)C(=S)C(C)(C)N2C(=O)c1cccc(OC)c1	-12.8%
O=C(Nc1ccc(F)c(Cl)c1)c1nn2c(c1Cl)NC(c1ccccc1)CC2C(F)(F)F (stereo unspecified)	5.1%
O=C(/C=C/c1ccc(F)cc1)N1CCC(CN2C(=O)c3cccc4cccc(c34)C2=O)CC1	7.1%
O=C(O)CN1C(=O)/C(=C\c2cc(Cc3ccccc3)cc([N+](=O)[O-])c2O)SC1=S	-9.8%
COc1ccc(/C=C2/SC(=Nc3ccccc3)NC2=O)cc1O	-4.5%
CCOC(=O)C(C#N)C(=S)Nc1ccccc1 (stereo unspecified)	2.7%
CCN(CC)CCCCCCOc1ccccc1OC	11%
COC(=O)NC(NC(=O)OC)c1ccc(F)cc1	-1.3%
CS(=O)(=O)N(Cc1ccc(C(=O)Nc2ccc(Oc3ccccc3)cc2)cc1)c1ccccc1	7.7%
COc1cc(-c2noc(-c3ccc(C)cc3)n2)cc(OC)c1OC	10.8%
Cc1cc(C)cc(N(CC(=O)NCCSc2nc3ccccc3s2)S(=O)(=O)c2ccccc2)c1	15.1%
CC(C)c1ccc(/C=C(\NC(=O)c2ccccc2)C(=O)NCc2ccco2)cc1	11.2%
CCOC(=O)c1c(NC(=O)CN2C(=O)c3ccccc3C2=O)sc2c1CCCC2	-1.2%
COc1ccc(C(=O)Nc2cccc(C)c2C)cc1	-5.5%
O=C(COc1ccc([N+](=O)[O-])cc1)Nc1ccc(Cl)cn1	-2.9%
COc1ccccc1-c1coc2cc(OC(=O)c3ccc(Cl)cc3Cl)ccc2c1=O	63.9%
O=C(O)C1C2CCC(O2)C1C(=O)N1CCN(C(c2ccccc2)c2ccccc2)CC1 (stereo unspecified)	9%
CCOc1cccc(C(=O)Nc2ccc(C)cc2[N+](=O)[O-])c1	8.1%
C/C=C/C=C/C(=O)Nc1cccc(C(=O)/C=C/c2ccccc2)c1	14.3%
Cc1cccc(C)c1NS(=O)(=O)c1cccc2cccnc12	3.3%

SMILES	displacement
O=c1[nH]cnc2c1C1(CCCC1)Cc1ccccc1-2	-6.4%
O=C(Nc1nc(-c2ccc(Cl)cc2)cs1)c1ccc(S(=O)(=O)N2CCOCC2)cc1	-6.7%
Cc1ccc(N(CC(=O)Nc2ccccc2F)S(=O)(=O)c2ccccc2)c(C)c1	4.5%
O=C1c2cccc([N+](=O)[O-])c2C(=O)N1c1ccccn1	1.8%
COCc1cc(=O)n2[nH]c(-c3ccc(C)cc3)cc2n1	5.1%
O=c1c(C=NCc2cccs2)c(C(F)(F)F)[nH]n1-c1nc2ccccc2s1	-13.8%
CCOc1ccc(CNC23CN4CN(CN(C4)C2)C3)cc1	-5.3%
O=C(O)c1ccccc1NC(=O)c1ccccc1-c1ccccc1C(=O)O	-4.5%
COc1cc(C(c2c(C)[nH][nH]c2=O)c2c(C)[nH][nH]c2=O)ccc1OC(=O)c1ccccc1Cl	-21%
COc1cc([N+](=O)[O-])ccc1NC(=O)c1cccc(I)c1	-9.7%
COc1ccc(N2C(=O)/C(=C\c3cccc(C(F)(F)F)c3)SC2=S)cc1	14.9%
Cc1nc(NC(=S)Nc2ccccc2)sc1C	-16.7%
Cc1cccn2c(=O)c(/C=C3\SC(=S)N(C(C)c4ccccc4)C3=O)c(NCCCn3ccnc3)nc12 (stereo unspecified)	8.8%
CCOc1ccccc1NC(=O)NS(=O)(=O)c1ccc(C)cc1	11.9%
CSc1ccccc1NC(=O)c1nn2c(c1Cl)NC(c1ccco1)CC2C(F)(F)F (stereo unspecified)	4.8%
COC(=O)C1=C(C)NC(=O)CC1c1cc([N+](=O)[O-])ccc1Cl (stereo unspecified)	-3%
Cc1ccc(N=Cc2ccc([N+](=O)[O-])s2)c(C)c1	1.8%
O=C(N/N=C/c1ccccc1O)c1n[nH]c2c1CCC2	-21.4%
COc1ccc(N(CC(=O)Nc2ccc(C)cc2C)S(C)(=O)=O)cc1	2.2%
Cc1cc(Cl)ccc1OCC(=O)NNC(=O)Cc1ccc(Cl)cc1	-7.4%
COc1ccc(/C(O)=C2/C(=O)C(=O)N(CCCCCC(=O)O)C2c2ccccc2[N+](=O)[O-])cc1 (stereo unspecified)	-0.2%
CN(C)CCN1C(=O)C(=O)/C(=C(/O)c2ccccc2)C1c1ccccc1F (stereo unspecified)	-14.8%

SMILES	displacement
COc1ccc(OC)c(N=Cc2c(O)n(-c3ccc(F)cc3)c(=O)[nH]c2=O)c1	-17.7%
O=C1N(c2ccccc2)C(c2ccc(Cl)cc2)N2CCCN12 (stereo unspecified)	-9.6%
C=CCN1C(=O)C(Cc2ccccc2)S/C1=N/N=C/c1ccccc1 (stereo unspecified)	3%
COc1ccc(Cl)cc1NC(=O)CN(c1ccccc1)S(=O)(=O)c1ccccc1[N+](=O)[O-]	15.4%
O=C(/C=C/c1ccc(Cl)cc1)Nc1ccc(-c2nc3ccccc3s2)c(O)c1	25.2%
COC(=O)c1ccc(N2C(=O)c3cccc([N+](=O)[O-])c3C2=O)cc1	-0.7%
Cc1cccc(/C=N/N2CCN(Cc3cccc4ccccc34)CC2)c1	7.6%
O=C1c2ccccc2-c2onc3c(Br)cc(O)c1c23	11.6%
CC(NC(=O)C1CC(=O)N(c2ccc(Br)cc2)C1)c1ccccc1 (stereo unspecified)	4.4%
Cc1ccc(CN2CCN(/N=C\c3ccc(O)cc3O)CC2)cc1	-1%
COC(=O)c1c(NC(=O)c2ccccc2Cl)sc2c1CCCCCC2	-8.4%
CC(=O)Oc1ccc(C(=O)Nc2cc(C)on2)cc1	4.2%
COC(=O)c1c(NC(=O)c2c(OC)cccc2OC)sc2c1C(C(=O)OC)CC2 (stereo unspecified)	-3.2%
O=C(COc1ccc2ccccc2c1)NC1C2CC3CC(C2)CC1C3 (stereo unspecified)	11.6%
Cc1c(Br)c([N+](=O)[O-])nn1CC(=O)NC1CCCCC1	-6.1%
COc1cc(C(C)=O)ccc1OC(=O)c1ccc([N+](=O)[O-])cc1Cl	0.5%
C(=C\c1ccccc1)/CSc1nnc(-c2ccc3c(c2)OCO3)n1-c1ccccc1	-3.9%
O=C(O)CC12CC3CC(CC(S)(C3)C1)C2	19.9%
CCCCOc1ccc2ccc(=O)oc2c1	39.9%
C#CCSc1nc2ccccc2n1C(=O)/C=C/c1cccc([N+](=O)[O-])c1	6.3%
Cc1ccc(NC2=C(Cl)C(=O)N(c3ccccc3Cl)C2=O)cc1Cl	-4.4%
COc1ccc(NC(=O)c2ccccc2F)cc1OC	-5.4%

SMILES	displacement
O=C(Nc1ccccc1)/C(=C\c1cccc(Br)c1)NC(=O)c1ccccc1	4.5%
CCOC(=O)c1c(NC(=O)Cc2ccc(Cl)cc2)sc(C(=O)Nc2ccccc2OC)c1C	-0.5%
CCCCOc1cc2oc(=O)c(CC)c(C)c2cc1CC	0.2%
O=C1NC(=O)N(c2cccc(F)c2)C(=O)/C1=C/c1ccc(I)o1	5.9%
CC(=O)NC(Oc1ccc(C=Nc2c(C)n(C)n(-c3ccccc3)c2=O)cc1)C(Cl)(Cl)Cl (stereo unspecified)	-2.8%
COc1cc(C2NC(C(=O)O)CS2)cc(I)c1OCc1ccccc1 (stereo unspecified)	-19.6%
CCn1c(/N=C/c2c(O)ccc3ccccc23)nc2ccccc21	20.6%
CC(=O)Nc1ccc(-c2ccnc(-c3ccc(NC(C)=O)cc3)n2)cc1	-51.8%
O=C1NN(c2ccc(Br)cc2)C(=O)/C1=C\c1ccccc1	21.3%
O=[N+]([O-])c1cc([N+](=O)[O-])c(Nc2ccccn2)nc1Nc1ccccn1	9%
CCOC(=O)/C(C#N)=C1\C=CNC(=O)N1	2.6%
O=C(CSc1nsc(SCC(=O)Nc2nccs2)n1)Nc1nccs1	26.3%
O=C(NC(NC(=S)Nc1cccc2ccccc12)C(Cl)(Cl)Cl)c1ccccc1F (stereo unspecified)	-6.9%
CC1=C(C(=O)Nc2ccccc2)C(c2ccccc2F)NC(=O)N1 (stereo unspecified)	15.9%
Oc1cccc(C=Nc2ccccc2O)c1	14.7%
CCOC(=O)c1c(NC(=O)CCN2C(=O)c3cccc4cccc(c34)C2=O)sc2c1CCC2	-6%
CCOc1ccc(NC(=O)CC2S/C(=N\N=C(/C)c3ccc([N+](=O)[O-])cc3)NC2=O)cc1 (stereo unspecified)	-1.5%
COc1cc(C2=Nc3ccc(Br)cc3C(c3ccccc3)N2CC(=O)NN)cc(OC)c1OC (stereo unspecified)	-10.2%
COc1ccc2c(c1)OCC/C2=N\OC(=O)c1ccccc1OC	-7.8%
COC(=O)CSc1nc(C)cc(C)n1	5.9%
O=C(O)CN1C(=O)/C(=C\c2ccc(OC(=O)c3ccc(Cl)cc3Cl)cc2)SC1=S	10.5%
CCN1C(=O)NC(c2ccc(SC)cc2)C(C(=O)OCCOC)=C1C (stereo unspecified)	-9.3%

SMILES	displacement
CCN1CCc2c(sc(NC(=O)Nc3ccc(Cl)cc3)c2C(N)=O)C1	21.3%
CCOC(=O)C(C)N(c1ccc(OC)cc1)S(C)(=O)=O (stereo unspecified)	2.6%
Cc1cccc(C(=O)Nc2sc3c(c2C(=O)N2CCOCC2)CCCC3)c1	0.9%
O=C(NC(=S)Nc1ccc(-c2nc3cc(Cl)ccc3o2)cc1)c1ccccc1Cl	-8.9%
N#C/C(=C/c1ccc(I)o1)C(=O)Nc1ccccc1Cl	-6.3%
COc1ccc(S(=O)(=O)Nc2ccc(Br)cc2F)cc1	-10.2%
Cc1cccc(NC(=O)C(=O)N/N=C/c2c(Cl)cccc2Cl)c1C	13%
O=C(Nc1sc2c(c1C(=O)N1CCOCC1)CCCCC2)c1ccc([N+](=O)[O-])cc1	-2.7%
O=C(Nc1ccccc1C(F)(F)F)c1ccc(-c2cccc(Cl)c2)o1	-8.1%
COc1ccc(C(=O)N2CCN(c3ccc([N+](=O)[O-])cc3)CC2)cc1Cl	17.7%
O=C(Nc1ccccc1C(=O)N1CCOCC1)c1ccccc1Cl	15.5%
COc1ccc(C2=C/C(=C/c3ccc(OC)c(OC)c3)C(=O)O2)cc1	154%
CC(=O)Nc1ccc(C(=O)N2CCCc3ccccc32)cc1	-7.1%
c1ccc2cc(OCCCCN3CCOCC3)ccc2c1	-5.3%
CCOC(=O)c1c(NC(=O)c2cc(OC)c(OC)c(OC)c2)sc(C(=O)Nc2ccc(OC)cc2OC)c1C	-17.5%
CSc1nc(=S)n(-c2ccc([N+](=O)[O-])cc2)c(C)c1C(C)=O	-6.7%
Cc1[nH]c2ccccc2c1C(=O)/C=C/c1cccs1	-1.3%
Cc1onc(-c2ccccc2Cl)c1C(=O)NC1CCCCCC1	5.4%
